Hit rate of the full screen: of about 320,000 compounds, about 9,100 (2.8%) were called active. This list was built around the results that the source calls inconclusive (neither active nor inactive); the mix of calls is not that of the screen. Calls come from the whole dose curve; as a rule, active = well fitted activation curve with a large enough effect; inconclusive = small, poorly fitted or top-dose-only effect; inactive = no such curve, though single readings can be large or run the other way. Potencies of inconclusive entries are left out as doubtful fits.
Assay: qHTS Assay for Rab9 Promoter Activators; note: nearly all actives have a fitted effect of over 60% in size; for activation, negative = inhibition: % of control where 0% means no effect
Conditions: Huh7 Rab9 promoter-luciferase reporter, luminescence, 24 h; series mostly up to 9.22 µM; activation, negative = inhibition: at the top concentration
Method in brief: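 Huh7 cells stably carrying a Rab9 promoter-luciferase reporter, 1500 cells per well in OP-MEM I with 10% FBS, treated with compound 24 hours at 37C. Luciferase activity read by luminescence after 10 minutes with Amplite reagent.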
Potency is the fitted concentration of half-maximal effect; tags give direction and shape of the fitted curve.

Compound | activation, negative = inhibition | Potency
COc1ccc(CCNC(=O)C2CC=CCC2C(=O)O)cc1 (configuration not stated) | inactive: 0.129% | 
Cc1ccc2cc(C#N)c(NCCNC(=S)NCCCN(C)C)nc2c1C | inactive: -13.1% | 
O=C(Cc1sc(Nc2ccccc2)nc1-c1ccccc1)NCc1ccccn1 |  | inconclusive [activator, single point]
CCOC(=O)N1CCN(C(=O)CS(=O)Cc2nc(-c3ccc(OC)c(OC)c3)oc2C)CC1 (configuration not stated) | inactive: -2.82% | 
CC(C)(C)NC(=O)C(=O)NNC(=O)c1cccc(F)c1 |  | inconclusive [activator, partial curve]
Cc1ccc(O)c(C(=O)c2cnc3c(c2)c(C)nn3-c2ccccc2)c1 | inactive: 0.585% | 
O=C(c1cc(-c2ccc3c(c2)OCO3)on1)N1CCN(c2ccccc2)CC1 |  | inconclusive [activator, partial curve]
O=C1NC(c2cccs2)Nc2sc3c(c21)CCCC3 (configuration not stated) |  | active: 3.55 µM
Cc1cc(=O)oc2cc(OC(C)C(=O)Nc3ccc(C(N)=O)cc3)ccc12 (configuration not stated) |  | inconclusive [activator, single point]
COc1ccc2nc(NC(=O)c3ccc(Br)s3)sc2c1 |  | active: 2.24 µM
COCCCN1CN=C(Nc2nc3ccccc3o2)NC1 |  | inconclusive [activator, partial curve]
COc1ccc(C(=O)OCC#CCSc2nnc(-c3cccc4ccccc34)o2)cc1 | inactive: -0.206% | 
O=C(NCCO)c1cccc(Cl)c1 |  | active: 0.0063 µM
Cc1ccc(-n2c(C)cc(C(=O)CN3CCOCC3)c2C)cc1 |  | inconclusive [activator, partial curve]
O=S(=O)(Nc1cccc(-c2cn3c(n2)SCC3)c1)c1cccs1 | inactive: 1.88% | 
Cc1ccc(/C=N/NC(=O)c2cccs2)cc1[N+](=O)[O-] |  | inconclusive [activator, single point]
CC(=O)c1c(C)oc2c1cc(O)c1ccccc12 | inactive: 6.76% | 
CC(C)(C)C(=O)NC(=S)Nc1ccccc1F |  | inconclusive [activator, partial curve]
Cc1ccc(C(=O)O/N=C(\N)c2ccccn2)c(C)c1 |  | inconclusive [activator, partial curve]
O=C(Nc1ccc2oc(-c3ccc4ccccc4c3)nc2c1)c1ccc2c(c1)OCCO2 |  | inconclusive [activator, full curve]
CSc1ccccc1NC(=O)c1cc2ncc(Br)cn2n1 |  | inconclusive [activator, single point]
COc1ccc2nc(NC(=O)CSc3nnc(C)n3N)sc2c1 |  | active: 0.501 µM
O=C(CSCc1ccccc1)Nc1ccc(F)c(F)c1 |  | inconclusive [activator, single point]
O=c1cc2[nH]c3ccccc3c(=O)n2nc1-c1ccccc1 |  | inconclusive [activator, partial curve]
Cc1ccccc1NC(=O)CSc1nnc(-c2ccccn2)o1 |  | inconclusive [activator, single point]
Cn1cc(C(=O)N2CCc3ccccc32)cn1 |  | inconclusive [activator, single point]

Compound | activation, negative = inhibition | Potency
O=C(c1cc(COc2ccc(F)cc2F)on1)N1CC2C[C@@H]3CC1C[C@H](C2)C3 |  | inconclusive [activator, partial curve]
Cc1c(C(=O)N(CCC#N)c2ccccc2)sc2nc3n(c(=O)c12)CCCC3 | inactive: -4.19% | 
CC(Sc1nncn1C)C(=O)Nc1nnc(-c2ccccc2)s1 (configuration not stated) |  | inconclusive [activator, single point]
O=C(Nc1ccc(Cl)c(Cl)c1)c1cccnc1 |  | inconclusive [activator, single point]
O=C(NC1=NCCS1)c1cc2ccccc2o1 |  | active: 0.355 µM
CC(C)C(=O)Nc1ccc(NC(=O)c2cccs2)cn1 |  | inconclusive [activator, partial curve]
COC(=O)Cc1ccc(NC(=S)N2CCCC(C)C2)cc1 (configuration not stated) |  | inconclusive [activator, single point]
COc1cccc(/C=C/C(=O)NNC(=O)c2ccncc2)c1 | inactive: -1.06% | 
Cc1c(C(=O)Nc2ccc3c(c2)OCCO3)sc2ncnc(N3CCCCC3C)c12 (configuration not stated) | inactive: -0.649% | 
O=C(O)c1ccccc1N/N=C/c1cc(Br)cc(Br)c1O |  | active: 1.41 µM
O=C(NC1CC1)c1sc2ccccc2c1Cl |  | inconclusive [activator, partial curve]
Cc1noc(C)c1C(=O)Nc1nc2ccc(Cl)cc2s1 |  | inconclusive [activator, partial curve]
COc1ccc2c(c1OC)C(=O)N(c1ccccn1)C2 |  | active: 2.24 µM
Cc1[nH]cnc1C(=O)N/N=C/c1c(Cl)cccc1Cl |  | inconclusive [activator, full curve, poor fit]
Cc1ccc(C(=O)NCc2ccccn2)c(Cl)c1 |  | inconclusive [activator, partial curve]
COc1ccc(C2C(=O)c3ccccc3C2=O)cc1OC |  | inconclusive [activator, single point]
C/C(=N\N=c1/sc2ccccc2n1C)c1ccccn1 |  | inconclusive [activator, partial curve]
O=C(c1ccccc1F)N1CCc2ccccc21 | inactive: -0.874% | 
CC(C)(C)C(=O)Nc1ccccc1C(=O)Nc1cc(Cl)ccc1Cl |  | inconclusive [activator, single point]
O=C(CN1CCC(C(=O)c2ccc3c(c2)OCCO3)CC1)Nc1ccccc1C(F)(F)F | inactive: -3.03% | 
O=C(/C=C/c1ccc(Br)o1)Nc1nccs1 |  | active: 2.82 µM
CCOC(=O)c1oc2ccc(/C=N/O)c(Cl)c2c1C |  | inconclusive [activator, partial curve]
Cc1nn(C)c(C(=O)N/N=C/c2ccc(-c3ccccc3)cc2)c1Cl | inactive: 7.12% | 
CC(C)c1ccc(-c2cc(C(=O)N3N=C(C(F)F)CC3(O)C(F)F)c3ccccc3n2)cc1 (configuration not stated) |  | inconclusive [activator, single point]
O=C(c1ccc(F)cc1)N1CCC(c2ccccc2)C1 (configuration not stated) |  | inconclusive [activator, partial curve]
O=C1N/C(=C\c2nc3ccccc3s2)c2ccccc21 |  | active: 0.282 µM

Compound | activation, negative = inhibition | Potency
Oc1ccc(Cl)cc1N=Nc1ccccc1 | inactive: 0.0419% | 
Cc1ccc(NC(=O)C2OCCc3ccccc32)cc1C (configuration not stated) |  | inconclusive [activator, single point]
O=C(Cc1cccs1)N/N=C\c1ccc([N+](=O)[O-])s1 | inactive: -5.38% | 
COCCn1c(COc2ccc(OC)cc2)nc2ccccc21 |  | inconclusive [activator, single point]
COc1ccc(OC)c(Cc2nnc(CCC(=O)N3CCN(C4CCCC4)CC3)o2)c1 |  | inconclusive [activator, partial curve]
Cc1ccc(-c2nnc(SCC(C)C)n2C)cc1 |  | inconclusive [activator, partial curve]
c1ccc2cc(Sc3ncnc4c3oc3ccccc34)ccc2c1 |  | inconclusive [activator, single point]
O=C(Nc1cccc(F)c1)Nc1cccc(Cl)c1 |  | inconclusive [activator, single point]
CCN1CCN(c2ccc(NC(=O)c3cc4ccccc4cc3OC)cc2C)CC1 |  | inconclusive [activator, partial curve]
COc1ccc(C(=O)NCCSc2ccccc2)cc1OC |  | inconclusive [activator, single point]
COc1ccc(/C(N)=N/OC(=O)c2ccco2)cc1OC |  | inconclusive [activator, partial curve]
O=C(/C=C1\NC2(CCCC2)Cc2ccccc21)C(=O)N/N=C/c1ccccc1O | inactive: -24.4% | 
O=C(O)c1ccc(N/N=C/c2ccc(OC(=O)c3cccc(Cl)c3)cc2)cc1 |  | inconclusive [activator, full curve, poor fit]
Cc1sc2nc(CN3CCCCC3)nc(Cl)c2c1C | inactive: -0.488% | 
N#CCOc1ccccc1/C=C/c1nc2ccccc2c(=O)[nH]1 |  | inconclusive [activator, partial curve]
CCN1C(=O)c2ccc(C(=O)Nc3cccc(C(=O)O)c3)cc2C1=O |  | inconclusive [activator, single point]
CCCc1ccc(C(=O)NNc2ccccc2F)cc1 |  | inconclusive [activator, single point]
CCCOc1nc2c(c(=O)n(C)c(=O)n2C)n1Cc1cccc2ccccc12 | inactive: -0.874% | 
COc1ccc2[nH]c(=O)c(CN(C)C(=O)COc3ccccc3)cc2c1 | inactive: 0.152% | 
O=C(Nc1ccccc1)c1ccc(NCC2CCCO2)c([N+](=O)[O-])c1 (configuration not stated) |  | inconclusive [activator, single point]
O=C1COc2ccc(C(=O)COC(=O)c3ccccc3[N+](=O)[O-])cc2N1 |  | inconclusive [activator, partial curve, poor fit]
Cc1csc(SCC(=O)Nc2nc(-c3ccccc3)cs2)n1 | inactive: 20% | 
CC(C)Oc1ccc(/C(O)=C2/C(=O)C(=O)N(CCN(C)C)C2c2ccco2)cc1 (configuration not stated) |  | inconclusive [activator, single point]
CC1CCc2nc3ccccc3c(C(=O)OCC(=O)NC3CCS(=O)(=O)C3)c2C1 (configuration not stated) | inactive: -9.14% | 
COc1ccc(OC(=O)c2cnn(-c3ccccc3)c2C)cc1 |  | active: 3.16 µM
